Reference: PubChem BioAssay AID1745853 (National Center for Advancing Translational Sciences (NCATS), 2022)
“And” between values parts separate entries of the source, which are not always exact repeats. Identical values can stand only once. This is one part of the list. The main result of the screen is listed elsewhere. These columns were measured beside it and carry no call.

How the values were obtained:
Experiment in all cases: Primary Screen for Target Class Profiling of Small Molecule Inhibitors of Methyltransferases
[1] = target: Glycine N-methyltransferase (Homo sapiens) (UniProt Q14749); settings: purified enzyme, MTase-Glo SAH luminescence; measured here: GNMT inhibition; at 40 µM; stronger effect = lower value
Procedure, shortened: (§1)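 Each enzyme was reacted with SAM and its substrate, with compounds tested once at 40 uM; SAH formed was read by MTase-Glo luminescence.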

[2] = target: Guanidinoacetate N-methyltransferase (Homo sapiens) (UniProt Q14353); settings: purified enzyme, MTase-Glo SAH luminescence; measured here: GAMT inhibition; at 40 µM; stronger effect = lower value
Procedure, shortened: as §1

[3] = target: Histamine N-methyltransferase (Homo sapiens) (UniProt P50135); settings: purified enzyme, MTase-Glo SAH luminescence; measured here: HNMT inhibition; at 40 µM; stronger effect = lower value
Procedure, shortened: as §1

[4] = target: Nicotinamide N-methyltransferase (Homo sapiens) (UniProt P40261); settings: purified enzyme, MTase-Glo SAH luminescence; measured here: NNMT inhibition; at 40 µM; stronger effect = lower value
Procedure, shortened: as §1

[5] = target: Phenylethanolamine N-methyltransferase (Homo sapiens) (UniProt P11086); settings: purified enzyme, MTase-Glo SAH luminescence; measured here: PNMT inhibition; at 40 µM; stronger effect = lower value
Procedure, shortened: as §1
On the % scale 0 is the no-effect control and ±100 the full control effect.

Row | Compound | activity change, negative = inhibition [1] | activity change, negative = inhibition [2] | activity change, negative = inhibition [3] | activity change, negative = inhibition [4] | activity change, negative = inhibition [5]
1 | C#CC1(O)CCC2C3CCC4=CC(=O)CCC4=C3C=CC21C (stereo not given) | -7.81% | 0.017% | 3.69% | -12.3% | -0.758%
2 | COc1ccccc1NC(=O)N1Cc2ccccc2-n2cccc2C1c1cccc(C)c1 (stereo not given) | 4.88% | 3.75% | -2.6% | -1.56% | 2.15%
3 | C[C@]12CC[C@@H](O)C[C@@H]1CC[C@@H]1[C@@H]2CC[C@]2(C)C(=O)[C@@H](Br)C[C@@H]12 | -2.94% | 1.8% | -4.53% | -14.7% | -7.29%
4 | O=C(Nc1ccccc1Br)N1Cc2ccccc2-n2cccc2C1c1cccs1 (stereo not given) | 9.18% | 3.63% | 5.34% | 1.45% | 9.77%
5 | O=C(O)C1=NOC2CN(CC3CCCCC3)CC12 (stereo not given) | 2.26% | -3.32% | 2.32% | 1.64% | 2.82%
6 | C[C@H](N)Cc1cccc(C(F)(F)F)c1 | 4.43% | 8.22% | 2.9% | -3.56% | -18.5%
7 | COc1ccc(OC)c(NC(=O)N2Cc3ccccc3-n3cccc3C2c2ccc(C)cc2)c1 (stereo not given) | 8.2% | 0% | 8.46% | 7.22% | 4.18%
8 | COc1ccc(OC)c(NC(=O)N2Cc3ccccc3-n3cccc3C2C)c1 (stereo not given) | 8.41% | 3.76% | 2.04% | -1.76% | 7.43%
9 | CCOCCCNC(=O)N1Cc2ccccc2-n2cccc2C1c1cccs1 (stereo not given) | 12% | 7.08% | -3.28% | -12.9% | -1.77%
10 | CN1CCCC1CCOC(c1cc2nccc(C(=O)O)c2[nH]1)c1ccccc1Cl (stereo not given) | 2.36% | 6.3% | 3.27% | -8.71% | 1.33%
11 | COc1cc2c(c(OC)c1OC)-c1ccc(SC)c(=O)cc1[C@@H](NC(C)=O)CC2 | -0.287% | -3.14% | 6.94% | -12.6% | -0.365%
12 | CC(NC(C)(C)C)C(=O)c1cccc(Cl)c1 (stereo not given) | -2.27% and 11.1% | 4.13% and 14.4% | 8.79% and 11.6% | -14.5% and -5.15% | 0.966% and 1.35%
13 | COc1cc(OC)c(NC(=O)N2Cc3ccccc3-n3cccc3C2C)cc1Cl (stereo not given) | 6.5% | 2.14% | -3.33% | -4.41% | 0.601%
14 | COc1ccc(C2c3cccn3-c3ccccc3CN2C(=O)Nc2cc(Cl)ccc2OC)cc1 (stereo not given) | 13.1% | 3.88% | 2.9% | 7.87% | 10.7%
15 | CN1CCc2cc(O)cc3c2[C@H]1Cc1ccc(O)c(O)c1-3 | -91.9% | 2.76% | -8.33% | -6.84% | -0.873%
16 | COc1ccc(NC(=O)N2Cc3ccccc3-n3cccc3C2c2ccc(SC)cc2)c(OC)c1 (stereo not given) | 0.899% | 0% | 7.55% | 2.25% | 6.68%
17 | CCOC(=O)c1cccc(NC(=O)N2Cc3ccccc3-n3cccc3C2C)c1 (stereo not given) | 9.65% | 4.41% | 3.38% | -2.1% | 7.78%
18 | Cc1cc(NC(=O)N2Cc3ccccc3-n3cccc3C2c2cccs2)ccc1Br (stereo not given) | 3.18% | 2.54% | -4.46% | -4.7% | 1.21%
19 | CCOc1ccccc1NC(=O)N1Cc2ccccc2-n2cccc2C1c1ccc(SC)cc1 (stereo not given) | 1.32% | 4.3% | -0.808% | -0.565% | 5.13%
20 | CCc1ccc(NC(=O)N2Cc3ccccc3-n3cccc3C2c2ccc(SC)cc2)cc1 (stereo not given) | -1.29% | 0% | -1.15% | 0.715% | 3.06%

Row | Compound | activity change, negative = inhibition [1] | activity change, negative = inhibition [2] | activity change, negative = inhibition [3] | activity change, negative = inhibition [4] | activity change, negative = inhibition [5]
21 | C[C@@H]1Cc2c(Cl)cc(C(=O)N[C@@H](Cc3ccccc3)C(=O)O)c(O)c2C(=O)O1 | -0.612% | 0.029% | 2.83% | -13.8% | 1.14%
22 | CC(=O)O[C@H]1C[C@]2(O)[C@@H]3CC[C@@H]4C[C@@H](O)CC[C@]4(C)[C@H]3CC[C@]2(C)[C@H]1c1ccc(=O)oc1 | 1.17% | 5.3% | 2.48% | -10.1% | -1.89%
23 | NC(CP(=O)(O)O)C(=O)O (stereo not given) | -2.4% | 6.08% | -0.274% | -1.55% | 10%
24 | COc1ccc(C2c3cccn3-c3ccccc3CN2C(=O)Nc2ccccc2Cl)cc1OC (stereo not given) | 8.2% | 0.466% | 2.43% | 2.38% | 6.24%
25 | Cn1c(CCCC(=O)O)nc2cc(N(CCCl)CCCl)ccc21 | -14.6% | 1.06% | -2.13% | -8.18% | 1.16%
26 | O=C(Nc1ccc2c(c1)OCCO2)N1Cc2ccccc2-n2cccc2C1c1ccc(Cl)cc1 (stereo not given) | 2.39% | 0% | 2.83% | 5.37% | 6.74%
27 | Nc1ncnc2c1ncn2[C@@H]1O[C@@H]2COP(O)(=S)O[C@H]2[C@H]1O (stereo not given in full) | 4.59% | 7.74% | 12.9% | -3.1% | 7.34%
28 | CCCNC(=O)N1Cc2ccccc2-n2cccc2C1c1cccc(C)c1 (stereo not given) | 6.47% | 0% | 1.38% | -1.1% | 6.43%
29 | COc1cc(C(=O)O[C@H]2[C@@H]3C=CO[C@@H](O[C@@H]4O[C@H](CO)[C@@H](O)[C@H](O)[C@H]4O)[C@@H]3[C@@]3(CO)O[C@@H]23)ccc1O | -1.02% | -5.85% | -2.57% | -14.5% | -0.497%
30 | CCOc1ccc(C2c3cccn3-c3ccccc3CN2C(=O)Nc2cccc(Cl)c2C)cc1 (stereo not given) | -3.02% | -3.83% | 4.44% | 0.933% | 1.67%
31 | O=C(N[C@@H](COc1ccc2[nH]c(=O)[nH]c2c1)c1ccccc1)c1cccn(Cc2ccc(F)c(F)c2)c1=O | -0.437% | -1.34% | 8.54% | -37.8% | -7.47%
32 | CC1c2cccn2-c2ccccc2CN1C(=O)NCc1ccc(F)cc1 (stereo not given) | 2.46% | 4.99% | -6.89% | -14.6% | 3.03%
33 | CS(=O)(=O)N1C[C@H]2CCN(Cc3ccc[nH]3)C[C@H]21 | -17.3% | -13% | -4.85% | -18.3% | -28.1%
34 | O=C1Nc2ccccc2CC12CCN(Cc1cccnc1)C2 (stereo not given) | -6.7% | -1.81% | -0.683% | -5.54% | -26.7%
35 | CSc1ccc(C2c3cccn3-c3ccccc3CN2C(=O)Nc2cccc(SC)c2)cc1 (stereo not given) | -1.71% | -3.27% | -1.15% | -7.54% | -2.52%
36 | COc1cccc(CNC(=O)N2Cc3ccccc3-n3cccc3C2c2cccc(Cl)c2)c1 (stereo not given) | 5.23% | 0% | -0.291% | -4.2% | 2.8%
37 | COc1ccccc1-n1cc(C2=CCN(CCOCCO)CC2)cn1 | -12% | -7.87% | -36.5% | -10.8% | 8.32%
38 | Cc1ccc(NC(=O)N2Cc3ccccc3-n3cccc3C2c2cccc(Cl)c2)cc1C (stereo not given) | 10.8% | 4.22% | 2.35% | -1.07% | 2.19%
39 | CCC1c2cccn2-c2ccccc2CN1C(=O)NC1CCCC1 (stereo not given) | -5.86% | 1.77% | -9.34% | -20.8% | -6.38%
40 | Cc1ccc(C2c3cccn3-c3ccccc3CN2C(=O)Nc2cccc(Cl)c2C)cc1 (stereo not given) | 2.15% | 4.22% | -4.01% | 2.91% | 1.73%
